Patent US20250161477A1, “NOVEL METHODS OF THERAPY” (BIVICTRIX LIMITED, priority 2022, published 2025)

How the values were obtained:
[1] = molecular target: human CD33 (human) (UniProt P20138); experiment: cell-based or functional assay
[2] = molecular target: human CD56 (human) (UniProt P13591); experiment: cell-based or functional assay
UniProt P13591, sequence (P13591 other isoform, or with tags, fused parts or gaps limits assumed): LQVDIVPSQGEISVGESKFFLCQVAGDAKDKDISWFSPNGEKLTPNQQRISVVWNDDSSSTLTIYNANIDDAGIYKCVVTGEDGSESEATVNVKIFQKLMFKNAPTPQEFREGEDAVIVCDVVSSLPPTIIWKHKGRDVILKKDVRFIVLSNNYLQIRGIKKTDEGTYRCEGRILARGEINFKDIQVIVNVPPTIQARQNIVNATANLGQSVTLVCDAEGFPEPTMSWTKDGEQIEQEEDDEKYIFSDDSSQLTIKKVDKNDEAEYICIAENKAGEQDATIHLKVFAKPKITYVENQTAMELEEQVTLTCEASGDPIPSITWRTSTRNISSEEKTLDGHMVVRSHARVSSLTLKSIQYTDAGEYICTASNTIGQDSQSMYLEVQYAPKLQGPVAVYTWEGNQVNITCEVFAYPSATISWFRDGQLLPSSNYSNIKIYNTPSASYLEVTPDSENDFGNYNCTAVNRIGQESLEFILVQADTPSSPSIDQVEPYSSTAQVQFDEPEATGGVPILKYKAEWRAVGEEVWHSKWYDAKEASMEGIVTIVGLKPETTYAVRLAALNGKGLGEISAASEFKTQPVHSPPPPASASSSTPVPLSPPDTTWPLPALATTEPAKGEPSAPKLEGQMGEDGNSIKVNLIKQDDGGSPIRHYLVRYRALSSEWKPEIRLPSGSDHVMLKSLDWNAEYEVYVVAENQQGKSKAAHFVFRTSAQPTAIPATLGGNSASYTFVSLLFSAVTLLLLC

UniProt P20138, sequence (P20138 18-364 R69G limits assumed): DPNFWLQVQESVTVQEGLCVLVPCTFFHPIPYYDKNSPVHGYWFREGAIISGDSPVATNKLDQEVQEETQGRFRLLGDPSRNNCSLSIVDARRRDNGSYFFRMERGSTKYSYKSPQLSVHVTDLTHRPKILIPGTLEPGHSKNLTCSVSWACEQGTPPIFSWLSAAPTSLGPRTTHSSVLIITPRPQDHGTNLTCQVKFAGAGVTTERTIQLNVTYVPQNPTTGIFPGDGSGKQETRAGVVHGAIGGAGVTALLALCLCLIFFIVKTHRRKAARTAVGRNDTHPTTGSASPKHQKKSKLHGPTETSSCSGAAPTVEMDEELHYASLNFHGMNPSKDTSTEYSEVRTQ

B1: BVX04-b0097-AB6A-1 (CD33xCD56 V format ADC) (bispecific antibody, not shown: large carriers)
heavy: EVQLVQSGAEVKKPGSSVKVSCKASGYTITDSNIHWVRQAPGQSLEWIGYIYPYNGGTDYNQKFKNRATLTVDNPTNTAYMELSSLRSEDTAFYYCVNGNPWLAYWGQGTLVTV[letters of human IgG1 constant region with changes not shown]
light: DIQLTQSPSTLSASVGDRVTIICRASESLDNYGIRFLTWFQQKPGKAPKLLMYAASNQGSGVPSRFSGSGSGTEFTLTISSLQPDDFATYYCQQTKEVPWSFGQGTKLEIK
chain: DVVMTQSPLSLPVTPGEPASISCRSSQSLLHSNGYNFLDWYLQKPGQSPQLLIYLGSNRASGVPDRFSGSGSGTDFTLKISRVEADDVGVYYCMQSLQTPWTFGHGTKVEIKGGGGSGGGGSGGGGSGGGGSEVQLVQSGAEVKKPGSSVKVSCKASGGTFTGYYMHWVRQAPGQGLEWMGWINPNSGGTNYAQKFQGRVTMTRDTSISTAYMELSRLRSDDTAVYYCARDLSSGYSGYFDYWGQGTLVTVSSGGGGS[letters of human IgG1 Fc with changes not shown]
[1]
  Mean IC50, cell kill assay (WST-1, 96 h, with human serum) on KASUMI-3 cells (CD33+/CD56+): 0.15 nM
  Mean IC50, cell kill assay (WST-1, 96 h, with human serum) on SET-2 cells (CD33+/CD56-): > 30 nM
[2]
  Mean IC50, cell kill assay (WST-1, 96 h, with human serum) on KASUMI-3 cells (CD33+/CD56+): 0.15 nM
  Mean IC50, cell kill assay (WST-1, 96 h, with human serum) on KE-37 cells (CD33-/CD56+): > 30 nM
